Reference: paper PMC2233781
No constants are given. Whether binding was seen depends on the method and setting. In cells and extracts the contact can be indirect. Some binding calls cover weakened binding; strength is not graded here. For some assays here: Where a sequence is shown, tags or fusion partners need not be part of it.

By UniProt entry, the sequences of proteins in these tests, tags left out. Where a name states a change or a piece, a line headed by the entry shows the natural chain unless it says otherwise. Residues count along the entry.
UniProt P13864: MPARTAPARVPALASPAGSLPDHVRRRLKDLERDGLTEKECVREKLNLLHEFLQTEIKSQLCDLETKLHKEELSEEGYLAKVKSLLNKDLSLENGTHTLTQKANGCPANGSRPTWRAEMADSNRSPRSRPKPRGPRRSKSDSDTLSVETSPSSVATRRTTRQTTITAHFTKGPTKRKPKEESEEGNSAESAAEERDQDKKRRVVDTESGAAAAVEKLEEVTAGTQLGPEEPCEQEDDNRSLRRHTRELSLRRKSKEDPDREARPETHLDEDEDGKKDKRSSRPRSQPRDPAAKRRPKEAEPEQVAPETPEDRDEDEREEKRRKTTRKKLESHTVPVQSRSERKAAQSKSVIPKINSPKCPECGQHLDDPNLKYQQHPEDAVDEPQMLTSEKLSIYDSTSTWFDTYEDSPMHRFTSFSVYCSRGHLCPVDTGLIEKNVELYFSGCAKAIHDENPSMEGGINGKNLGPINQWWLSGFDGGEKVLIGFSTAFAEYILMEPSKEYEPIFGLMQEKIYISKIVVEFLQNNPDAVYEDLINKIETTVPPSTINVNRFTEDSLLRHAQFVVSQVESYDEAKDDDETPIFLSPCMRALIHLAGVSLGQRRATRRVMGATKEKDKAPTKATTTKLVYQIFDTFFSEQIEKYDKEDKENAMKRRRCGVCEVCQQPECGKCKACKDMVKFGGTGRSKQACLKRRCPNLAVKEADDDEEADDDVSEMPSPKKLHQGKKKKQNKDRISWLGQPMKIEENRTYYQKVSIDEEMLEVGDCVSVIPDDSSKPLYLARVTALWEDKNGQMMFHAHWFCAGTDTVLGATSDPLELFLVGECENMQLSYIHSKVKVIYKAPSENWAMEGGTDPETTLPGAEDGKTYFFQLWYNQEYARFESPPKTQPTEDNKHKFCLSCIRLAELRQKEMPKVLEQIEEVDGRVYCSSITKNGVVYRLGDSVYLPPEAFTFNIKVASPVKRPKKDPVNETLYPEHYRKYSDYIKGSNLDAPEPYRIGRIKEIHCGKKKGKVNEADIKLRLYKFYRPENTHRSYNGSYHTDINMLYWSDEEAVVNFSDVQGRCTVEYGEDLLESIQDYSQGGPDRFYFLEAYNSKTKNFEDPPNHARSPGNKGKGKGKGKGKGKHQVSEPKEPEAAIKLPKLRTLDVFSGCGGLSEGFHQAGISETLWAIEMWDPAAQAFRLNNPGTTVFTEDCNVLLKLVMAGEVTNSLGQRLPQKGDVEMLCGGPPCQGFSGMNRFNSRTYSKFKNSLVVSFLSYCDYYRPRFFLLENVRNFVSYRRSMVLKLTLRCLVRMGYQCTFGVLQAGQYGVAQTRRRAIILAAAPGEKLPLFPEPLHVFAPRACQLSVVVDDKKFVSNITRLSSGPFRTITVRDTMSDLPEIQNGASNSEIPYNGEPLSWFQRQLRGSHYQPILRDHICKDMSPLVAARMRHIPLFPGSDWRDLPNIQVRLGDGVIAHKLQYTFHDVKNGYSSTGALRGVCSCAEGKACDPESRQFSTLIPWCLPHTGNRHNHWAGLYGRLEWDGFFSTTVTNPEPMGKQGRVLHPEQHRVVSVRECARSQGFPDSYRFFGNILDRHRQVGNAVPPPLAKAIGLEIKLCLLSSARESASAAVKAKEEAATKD
GST–DNMT1 (aa 1–343): residues 1-343 of P13864
Flag–DNMT1 (aa 1–296): residues 1-296 of P13864
Flag–DNMT1 (aa 1–158): residues 1-158 of P13864
Flag–DNMT1 (aa 158–1620): residues 158-1620 of P13864
Flag–DNMT1 (aa 296–1620): residues 296-1620 of P13864
GST–DNMT1 (aa 350–609): residues 350-609 of P13864
GST–DNMT1 (aa 613–748): residues 613-748 of P13864
GST–DNMT1 (aa 653–730): residues 653-730 of P13864
GST–DNMT1 (aa 686–812): residues 686-812 of P13864
GST–DNMT1 (aa 746–1110): residues 746-1110 of P13864
GST–DNMT1 (aa 1124–1620): residues 1124-1620 of P13864
UniProt D3YXK2: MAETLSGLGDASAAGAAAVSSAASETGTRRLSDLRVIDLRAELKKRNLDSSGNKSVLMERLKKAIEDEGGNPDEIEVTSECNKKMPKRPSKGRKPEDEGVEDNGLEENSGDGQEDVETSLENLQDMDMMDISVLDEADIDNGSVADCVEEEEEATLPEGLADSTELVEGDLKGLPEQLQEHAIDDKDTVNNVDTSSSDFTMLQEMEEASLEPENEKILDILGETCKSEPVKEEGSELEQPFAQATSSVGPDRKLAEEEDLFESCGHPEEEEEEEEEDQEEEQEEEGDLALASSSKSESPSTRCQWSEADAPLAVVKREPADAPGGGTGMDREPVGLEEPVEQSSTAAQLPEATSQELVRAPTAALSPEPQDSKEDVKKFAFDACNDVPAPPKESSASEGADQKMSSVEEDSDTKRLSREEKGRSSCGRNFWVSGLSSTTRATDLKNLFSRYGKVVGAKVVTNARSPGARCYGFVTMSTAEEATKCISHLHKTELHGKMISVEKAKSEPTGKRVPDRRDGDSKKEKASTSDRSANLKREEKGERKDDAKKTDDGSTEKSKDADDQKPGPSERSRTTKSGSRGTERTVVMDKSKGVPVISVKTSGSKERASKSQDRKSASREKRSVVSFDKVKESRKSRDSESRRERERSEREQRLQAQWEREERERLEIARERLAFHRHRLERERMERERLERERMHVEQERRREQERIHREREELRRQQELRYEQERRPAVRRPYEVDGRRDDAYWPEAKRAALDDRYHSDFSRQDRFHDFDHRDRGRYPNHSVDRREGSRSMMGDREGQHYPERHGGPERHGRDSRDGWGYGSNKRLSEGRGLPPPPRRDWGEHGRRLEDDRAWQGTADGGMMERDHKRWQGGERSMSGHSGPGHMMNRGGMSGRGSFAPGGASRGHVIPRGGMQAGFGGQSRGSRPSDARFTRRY

Experiments:
[1] = biological target: T1, GST–HESX1 (aa 1–107) (mouse) (UniProt Q61658); test: pull-down; about 2 ug GST fusion (or GST alone) on glutathione–sepharose beads incubated with 35S-methionine-labelled in vitro translated protein, 2 h, 4 °C, binding buffer (20 mM Tris–HCl pH 7.5, 200 mM NaCl, 1 mM EDTA, 10% glycerol); SDS-PAGE, autoradiography; only the target purified
T1 sequence: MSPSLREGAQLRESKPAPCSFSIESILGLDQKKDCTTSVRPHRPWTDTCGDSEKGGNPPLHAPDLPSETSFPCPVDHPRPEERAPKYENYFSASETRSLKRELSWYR

[2] = biological target: GST–HESX1 (aa 1–185) (mouse) (UniProt Q61658); test: as above
[3] = biological target: full-length Flag–DNMT1 (aa 1–1620) (mouse) (UniProt P13864); test: co-IP; transfected CHO cells, HA–HESX1 and Flag–DNMT1; unpublished data; protein levels much lower than in 293T
[4] = biological target: Flag–DNMT1 (aa 158–1620) (mouse) (UniProt P13864); test: co-IP; 293T cells co-transfected with HA–HESX1 and Flag–DNMT1 constructs; lysis buffer with 1% Triton X-100; anti-Flag or anti-HA antibodies on protein G sepharose, 2 h, 4 °C; blots with HRP-conjugated anti-HA or anti-Flag
[5] = biological target: Flag–DNMT1 (aa 1–158) (mouse) (UniProt P13864); test: as above
[6] = biological target: Flag–DNMT1 (aa 1–296) (mouse) (UniProt P13864); test: as above
[7] = biological target: Flag–DNMT1 (aa 296–1620) (mouse) (UniProt P13864); test: as above
[8] = biological target: full-length Flag–DNMT1 (aa 1–1620) (mouse) (UniProt P13864); test: as above
[9] = biological target: GST–HESX1 (aa 1–185) (mouse) (UniProt Q61658); test: pull-down; GST–HESX1 (aa 1–185) or GST on glutathione–sepharose beads incubated with about 1 mg protein extract of untransfected ES cells; Western blot with anti-DNMT1 antibody; only the target purified
[10] = biological target: full-length HA–HESX1 (mouse) (UniProt Q61658); test: co-IP; transfected CHO cells, HA–HESX1 and Flag–DNMT1; unpublished data; protein levels much lower than in 293T
[11] = biological target: full-length HA–HESX1 (mouse) (UniProt Q61658); test: co-IP; 293T cells co-transfected with HA–HESX1 and Flag–DNMT1 constructs; lysis buffer with 1% Triton X-100; anti-Flag or anti-HA antibodies on protein G sepharose, 2 h, 4 °C; blots with HRP-conjugated anti-HA or anti-Flag
[12] = biological target: GST–DNMT1 (aa 1124–1620) (mouse) (UniProt P13864); test: pull-down; about 2 ug GST fusion (or GST alone) on glutathione–sepharose beads incubated with 35S-methionine-labelled in vitro translated protein, 2 h, 4 °C, binding buffer (20 mM Tris–HCl pH 7.5, 200 mM NaCl, 1 mM EDTA, 10% glycerol); SDS-PAGE, autoradiography; only the target purified
[13] = biological target: GST–DNMT1 (aa 1–343) (mouse) (UniProt P13864); test: as above
[14] = biological target: GST–DNMT1 (aa 350–609) (mouse) (UniProt P13864); test: as above
[15] = biological target: GST–DNMT1 (aa 613–748) (mouse) (UniProt P13864); test: as above
[16] = biological target: GST–DNMT1 (aa 653–730) (mouse) (UniProt P13864); test: as above
[17] = biological target: GST–DNMT1 (aa 686–812) (mouse) (UniProt P13864); test: as above
[18] = biological target: GST–DNMT1 (aa 746–1110) (mouse) (UniProt P13864); test: as above

Molecule: in vitro translated SAFB1 (from UniProt D3YXK2 1-937)
- binding [1]: binds
- binding [2]: binds

Molecule: in vitro translated full-length DNMT1 (aa 1–1620) (from UniProt P13864 1-1620)
- binding [1]: binds weakly
- binding [2]: binds

Molecule: full-length HA–HESX1 (from UniProt Q61658 1-185)
- binding [3]: binds
- binding [4]: binds
- binding [5]: no binding
- binding [6]: binds weakly
- binding [7]: binds
- binding [8]: binds

Molecule: endogenous DNMT1 of ES cells (from UniProt P13864 1-1620)
- binding [9]: binds

Molecule: full-length Flag–DNMT1 (aa 1–1620) (from UniProt P13864 1-1620)
- binding [10]: binds
- binding [11]: binds

Molecule: in vitro translated full-length HESX1 (aa 1–185) (from UniProt Q61658 1-185)
- binding [12]: binds
- binding [13]: binds
- binding [14]: binds
- binding [15]: binds
- binding [16]: binds
- binding [17]: no binding
- binding [18]: binds weakly

B1: in vitro translated LONP2 (protein, UniProt Q9DBN5 1-852)
chain: MSSVSPIQIPSRLPLLLTHESVLLPGSTMRTSVDTARNLQLVRSRLLKGTSLQSTILGVIPNTPDPASDTQDLPPLHRIGTAALAVQVVGSNWPKPHYTLLITGLCRFQIVQVLKEKPYPVAEVEQLDRLEEFPNICKSREELGELSEQFYRYAVQLVEMLDMSVPAVAKLRRLLDNLPREALPDILTSIIRTSNKEKLQILDAVSLEDRFKMTIPLLVRQIEGLKLLQKTRKPKQDDDKRVIAIRPIRRIPHIPGTLEDEEEEEDNDDIVMLEKKIRTSSMPEQAHKVCVKEIKRLKKMPQSMPEYALTRNYLELMVELPWNKSTTDRLDIRAARILLDNDHYAMEKLKRRVLEYLAVRQLKNNLKGPILCFVGPPGVGKTSVGRSVAKTLGREFHRIALGGVCDQSDIRGHRRTYVGSMPGRIINGLKTVGVNNPVFLLDEVDKLGKSLQGDPAAALLEVLDPEQNHNFTDHYLNVAFDLSQVLFIATANTTATIPPALLDRMEIIQVPGYTQEEKIEIAHRHLIPKQLEQHGLTPQQIQIPQHTTLAIITRYTREAGVRSLDRKFGAICRAVAVKVAEGQHKEAKLDRSDVADGEGCKEHVLEDAKPESISDTADLALPPEMPILIDSHALKDILGPPLYELEVSERLSQPGVAIGLAWTPLGGKIMFVEASRMDGEGQLTLTGQLGDVMKESAHLAISWLRSNAKKYHLTNAFGSFDLLDNTDIHLHFPAGAVTKDGPSAGVTIVTCLASLFSGRLVRSDVAMTGEITLRGLVLPVGGIKDKVLAAHRAGLKQIIIPQRNEKDLEEIPSNVRQDLSFVTASCLDEVLNAAFDGGFPVKTRPGLIDSKL
modifications: 35S-methionine label
- binding [1]: binds
- binding [2]: binds

B2: in vitro translated SRFBP1 (protein, UniProt Q9CZ91 1-441)
chain: MAADPLPPSAMVQPGTLNLNNEVVKMRKEVKRIRVLVIRKLVRSVGRLKSKKGTEDALLKNQRRAQRLLEEIHAMKELKPDVVTKSALSDDINFEKTCKKPDSTATDRAVARLAGHPLLKKKIDVLKDAVQAFKDARQSAPAAESSESTSGEGRCKDIARSKDDARESQHPERTVVREQKAKDTNTAAKNAASGSKEKLAKTEQAPRAGTTPGSQGRPSGKGAGVNSEHQGAPAPGDSNQGKASTKTPEDSVCEPANNGVSEEEESEGEKEYFDDSTEERFYKQSSASEDSDSGDDFFIGKVRRTRKKESGVHSSAKELKPLPKVPSKTSTLETPWDVRNDKHRPIPEARKFESVFFHSLAGPKSSRRDPREQAPKNKAPDFPENEPPVKKQFTKSAYRGFESVKQTMQAPLHPSWEASRRRKEQQSKIAVFQGKKITFDD
modifications: 35S-methionine label
- binding [1]: binds
- binding [2]: binds

B3: in vitro translated ZFP592 (clone lacking 120 aa of the N-terminal part) (domain or fragment, UniProt Q8BHZ4 121-1262)
chain: RSFTSKLEPSKSEPLPTFNQFSPISSPEPEDPVKDNGFGIKSKHSDSYFPPPPGTVGGPVLEALSKFPVPELHMFDHFCKKEPKPEPLPLESQQEHEQGGQKVVEPHKDLDSSRFFGEALEFNSHPSNSIGEPKKLAPELSACSSVPPRQRLKPAHSKLSSCVAALVALQAKRVANVTKEDQPGHTKDSSGPTKEGSKGSPKMPKSPKSPRSPLEATRKSIKPSDSPRSICSDSSSKGSPSVAASSPPAIPKVRIKTIKTSSGEIKRTVTRILPDPDDPSKSPAESPAGSTITEAPSEAPGDEGTAMPVEEHFSEAGIHSGSPQGDRKGDENMIKTSDSSSPCRISGSRVPKGSALNSQASKKQQSTAPQASTPAASLLPKAVHLANLNLVPHSVAASVTAKSSAQRRSQPQVTQMTVPLVHQVKKAAPLIVEVFNKVLHSSNPVPLYAPNLSPPADSRIHVPASGYCCLECGDAFALEKSLSQHYSRRSVHIEVLCTLCSKTLLFFNKCSLLRHARDHKSKGLVMQCSQLLVKPISADQMFVAAPVNSTAPATPAASSSPKPSPTLDNASSVIPALPLYPDPVRLIRYGTKCPECHKQMRDYMVLATHFQRTTEETEGLTCQVCQMLLPNQCSFCAHQRIHAHKSPYCCPECGVLCRSAYFQTHVKENCLHYARKVGYRCIHCGVIHLTLALLKSHIQERHCQVFHKCAFCPMAFKTASSTMDHSTTQHPTQPHKPSQLIYKCSCEMVFNKKRHIQQHFYQNVSKTQAGVFKCPECPLLFLQKPELMQHVKNTHGVPRNVEELSSLQSSTDTSSNRPGSRAPAEPPATNVAARGSSLTAGRWGRPEAHRRAEARPRMRSTGWTCQECQEWVPDRESYVSHMKKSHGRTLKRYPCRQCEQSFHNPSSLRKHIRNNHDTVKKVYTCGYCTEDSPSFPRPSLLESHISLMHGIRNPDLSQTSKVRHPGGPSPQVNHLKRPVSRMADAPGTSNGATVSSTKRHKSLFQCAKCTFATDSELEFQSHIPQHQVDSSTAQCLLCGLCYTSTSSLNRHLFIVHKVRDQEEGGEDIVEVKVEAPDSEACSGEEVAMETKENGLEECASEPLVTDLGGQQGLALDEDSAQDPQNQPQASQDQNSHALSPQV
modifications: 35S-methionine label
- binding [1]: binds
- binding [2]: binds
